The values below come from publication doi:10.1101/2020.05.04.077941 (bioRxiv, 2020).

The target in test [1] is T1, His-FLAG-NEPH1-FL (full length) (Mus musculus, UniProt Q80W68 48-789).
T1 sequence: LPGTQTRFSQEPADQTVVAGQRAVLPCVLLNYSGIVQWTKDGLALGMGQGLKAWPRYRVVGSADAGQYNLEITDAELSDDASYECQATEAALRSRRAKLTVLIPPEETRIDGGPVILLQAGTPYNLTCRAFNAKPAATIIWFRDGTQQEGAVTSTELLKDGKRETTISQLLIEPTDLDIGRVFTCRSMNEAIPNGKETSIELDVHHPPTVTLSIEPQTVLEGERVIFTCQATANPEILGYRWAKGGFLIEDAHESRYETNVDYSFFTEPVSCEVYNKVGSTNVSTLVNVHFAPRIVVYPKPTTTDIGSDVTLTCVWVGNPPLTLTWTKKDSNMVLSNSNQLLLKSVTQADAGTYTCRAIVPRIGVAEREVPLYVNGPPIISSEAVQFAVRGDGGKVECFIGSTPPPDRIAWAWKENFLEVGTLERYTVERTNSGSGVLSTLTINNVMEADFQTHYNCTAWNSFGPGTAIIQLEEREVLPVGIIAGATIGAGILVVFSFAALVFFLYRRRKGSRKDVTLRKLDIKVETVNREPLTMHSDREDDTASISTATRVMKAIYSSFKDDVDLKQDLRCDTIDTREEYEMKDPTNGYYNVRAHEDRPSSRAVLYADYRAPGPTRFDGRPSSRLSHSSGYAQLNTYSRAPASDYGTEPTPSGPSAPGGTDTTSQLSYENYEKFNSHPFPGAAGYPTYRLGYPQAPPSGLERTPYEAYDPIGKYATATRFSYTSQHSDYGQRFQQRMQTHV
In words: SPR. For orientation: SPR reads the build-up and loss of mass on a sensor chip optically.

In test [2] the target is T2, His-FLAG-NEPHRIN-ECD (entire extracellular domain) (Mus musculus, UniProt Q9QZS7 37-1078).
T2 sequence: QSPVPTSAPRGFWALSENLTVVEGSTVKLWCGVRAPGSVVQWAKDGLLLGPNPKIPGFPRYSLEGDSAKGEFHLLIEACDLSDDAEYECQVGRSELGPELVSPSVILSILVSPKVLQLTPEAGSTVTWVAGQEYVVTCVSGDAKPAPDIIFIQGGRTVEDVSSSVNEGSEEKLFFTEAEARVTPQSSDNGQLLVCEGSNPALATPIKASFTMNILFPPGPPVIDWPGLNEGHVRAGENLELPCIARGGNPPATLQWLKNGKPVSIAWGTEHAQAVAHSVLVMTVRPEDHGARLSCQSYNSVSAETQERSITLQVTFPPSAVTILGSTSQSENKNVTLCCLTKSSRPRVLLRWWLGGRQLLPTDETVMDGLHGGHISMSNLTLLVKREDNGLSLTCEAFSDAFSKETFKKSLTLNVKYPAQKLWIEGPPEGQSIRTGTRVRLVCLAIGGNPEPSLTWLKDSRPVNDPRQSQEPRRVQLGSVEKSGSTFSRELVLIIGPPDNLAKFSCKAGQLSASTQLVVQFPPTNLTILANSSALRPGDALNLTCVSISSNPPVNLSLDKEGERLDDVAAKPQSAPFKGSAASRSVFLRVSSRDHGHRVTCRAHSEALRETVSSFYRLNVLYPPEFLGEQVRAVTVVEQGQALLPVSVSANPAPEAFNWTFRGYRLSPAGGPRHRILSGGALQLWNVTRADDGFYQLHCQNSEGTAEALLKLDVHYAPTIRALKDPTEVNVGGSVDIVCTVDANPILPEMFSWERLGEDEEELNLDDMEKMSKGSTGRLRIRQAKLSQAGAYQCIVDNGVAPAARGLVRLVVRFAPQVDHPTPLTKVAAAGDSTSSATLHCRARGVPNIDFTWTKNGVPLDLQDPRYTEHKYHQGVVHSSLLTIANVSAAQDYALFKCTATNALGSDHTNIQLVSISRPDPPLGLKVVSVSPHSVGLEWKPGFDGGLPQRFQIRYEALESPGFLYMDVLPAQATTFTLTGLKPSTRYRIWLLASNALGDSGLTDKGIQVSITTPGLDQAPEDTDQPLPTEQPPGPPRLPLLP
In words: SPR.

B1: purified human recombinant HGF (ligand)
chain: not shown
For the molecule B1, the Kd (as a rule, the equilibrium constant for the complex coming apart) in test [1] amounted to 25.7 nM; in test [2], 0.4 nM.
